For some assays here: At least one read-out could not be matched to a standard name with certainty. Some of these results come from one statement about several compounds together. Some ranges recur; such a range may be that of the whole group of compounds.
What was measured:
FOXO3 = assay: qPCR analysis of FOXO3-regulated genes; format: cell-based, human; conditions: 10 μM, 24 hrs, WI-38
Description: For qPCR analysis, WI-38 cells were treated with small molecules (at 10 μM) (biological quadruplicates) for 24 hrs and processed for RNA isolation and reverse transcription (RT) with the Cells-to-Ct Kit (Life Technologies), following manufacturer's instructions. RT products were diluted with H2O and used for qPCR analysis on an ABI 7300 system (Life Technologies) (technical triplicates). Relative expression levels of target genes were normalized to the genes B2M, PPIA and GAPDH. To knock down the expression of FOXO3 or NRF2, WI-38 cells were transfected, using the RNAiMAX reagents (Life Technologies), with siRNA oligos (at 10 nM final concentration, 10 ml culture medium) for FOXO3 (Life Technologies) or NRF2 (Integrated DNA Technologies) on 10-cm petri dishes for 36 hrs, and then detached and aliquoted onto 96-well (for qPCR analysis) or 384-well plates (for H2O2-stress treatment). ˜24 hrs later, small molecules were introduced and incubated with cells for 24 hrs. Cells were then either processed with the Cells-to-Ct Kit to prepare RT products for qPCR analysis or subjected to H2O2 (700 μM) for 3 hrs and assayed for viability. The knockdown efficiency of FOXO3 or NRF2 was checked at 36 hrs post-transfection and at the end as well.
For qPCR analysis, WI-38 cells were treated with small molecules (at 10 μM) (biological quadruplicate) for 24 hrs and processed for RNA isolation and reverse transcription (RT) with the Cells-to-Ct Kit (Life Technologies), following manufacturer's instructions. RT products were diluted with H2O and used for qPCR analysis on a LightCycler 480 system (Roche) (technical triplicates). Relative expression levels of target genes were normalized to the genes B2M, PPIA and GAPDH. To knock down the expression of FOXO3 or NRF2, WI-38 cells were transfected with siRNA oligos (at 10 nM final concentration) for FOXO3 (Life Technologies) or NRF2 on 10-cm petri dish for 36 hrs, and then detached and aliquoted onto 96-well plates. ˜24 hrs later, small molecules were introduced and incubated with cells for 24 hrs. Cells were then processed with the Cells-to-Ct Kit to prepare RT products for qPCR analysis. The knockdown efficiency of FOXO3 or NRF2 was checked at 36 hrs post-transfection and at the end as well.
Many perturbations that increase lifespan and stress resistance in animals do so in a FOXO-dependent fashion (Kenyon, 2010c). Humans have several FOXO genes, but FOXO3, which promotes stress resistance in mammalian cell culture (Kops et al., 2002; Nemoto and Finkel, 2002; Tran et al., 2003), is the one that has been linked to exceptional longevity in humans (Anselmi et al., 2009; Flachsbart et al., 2009; Li et al., 2009; Pawlikowska et al., 2009; Soerensen et al., 2010; Willcox et al., 2008). […]

mTOR = mTOR inhibition (RPS6 phosphorylation status), In-Cell Western; format: cell-based, human; conditions: 10 μM, 24 hrs, WI-38
Description: In-Cell Western assays were performed, following a standard immuno-staining protocol. Briefly, WI-38 cells were treated with small molecules for 24 hrs, and then processed and incubated with primary antibody cocktail (Cell Signaling, mouse anti-RPS, 1:25; rabbit-anti-pRPS6-(Ser-235/236), 1:100) overnight at 4° C. Next day, samples were processed and incubated with fluorophore-conjugated secondary antibodies (Cell Signaling, DyLight 680-goat anti-mouse, 1:500; DyLight 800-goat anti-rabbit, 1:1,000). Images were collected on an Odyssey Imager (LI-COR) and analyzed with the Image Studio Lite software (version 5.0.21).
Mammalian target of rapamycin (mTOR) is a crucial regulator of cell growth and metabolism and has been implicated in aging and many diseases, including cancer, diabetes and neurological diseases (Dazert and Hall, 2011; Zoncu et al., 2011). […] In addition, the anti-diabetes drug metformin (Kalender et al., 2010), as well as other AMPK activators such as 2-deoxy-D-glucose (Inoki et al., 2003) and AICAR (Shaw et al., 2004), could inhibit mTORC1. Applicants examined the effects of our molecules (at three doses, 5 μM, 10 μM and 20 μM) on the phosphorylation status of ribosomal protein S6 (RPS6), a readout of mTOR activity, to ask whether they could inhibit mTOR.
In-Cell Western assays were performed, following the same procedures to analyze DNA-damage markers. WI-38 cells were incubated with small molecules for 24 hrs, and then processed and incubated with primary antibody cocktail (mouse anti-RPS, 1:25; rabbit-anti-pRPS6, 1:100) overnight at 4° C. Next day, samples were processed and incubated with fluorophore-conjugated secondary antibodies (goat anti-mouse, 1:500; goat anti-rabbit, 1:1,000) in antibody dilution buffer. Images were collected on an Odyssey Imager (LI-COR) and analyzed with the Image Studio Lite software.

WI-38 cells = conditions: for Screen 1: Screening, at 10 uM (viability assay by ATP measurement, normalized fold-change shown, >=2.5): 24 h, then 700 μM H2O2 3 h, normalized to DMSO; for Screen 2: Dose response, at 10 uM (viability assay by ATP measurement, normalized fold-change shown, >=1.5) / Screen 3: Dose response, at 20 uM (viability assay by ATP measurement, normalized fold-change shown): H2O2 stress; for Exp. 1, under H2O2 stress treatment, at 10 uM (fold change): Exp. 1, WI-38 cells; for Exp. 1, under H2O2 stress treatment, at 10 uM (fold change) / Exp. 2, under H2O2 stress treatment, at 10 uM (fold change): normalized ATP measurement (Table 12); for Exp. 2, under H2O2 stress treatment, at 10 uM (fold change): Exp. 2, WI-38 cells; for Experiment 1, WI-38 cells (under H2O2 stress treatment), at 10 uM (fold change) / Experiment 2, WI-38 cells (under H2O2 stress treatment), at 10 uM (fold change): 10 uM (run along with HDF cells); for Dose response retest, at 10 uM (fold change) / Dose response retest, at 20 uM (fold change) / Library Screening, at 10 uM (fold change): H2O2-resistance of WI-38 cells; for Dose response retest, at 10 uM (fold change) / Dose response retest, at 20 uM (fold change): cherry-picked retest; for H2O2 stress treatment (3 hrs), at 10 uM (fold change): WI-38 cells, H2O2 3 hrs, normalized ATP measurement

SMILES | Robust expression of at least 2 FOXO3 target genes (FOXO3) | Reduction of ratio of phosphorylated RPS6 (p-RPS6) to total RPS6 (mTOR) | Screen 1: Screening, at 10 uM (viability assay by ATP measurement, normalized fold-change shown, >=2.5) (WI-38 cells) [fold-change] | Screen 2: Dose response, at 10 uM (viability assay by ATP measurement, normalized fold-change shown, >=1.5) (WI-38 cells) [fold-change] | Screen 3: Dose response, at 20 uM (viability assay by ATP measurement, normalized fold-change shown) (WI-38 cells) [fold-change] | Exp. 1, under H2O2 stress treatment, at 10 uM (fold change) (WI-38 cells) | Exp. 2, under H2O2 stress treatment, at 10 uM (fold change) (WI-38 cells) | Experiment 1, WI-38 cells (under H2O2 stress treatment), at 10 uM (fold change) (WI-38 cells) | Experiment 2, WI-38 cells (under H2O2 stress treatment), at 10 uM (fold change) (WI-38 cells) | Dose response retest, at 10 uM (fold change) (WI-38 cells) | Dose response retest, at 20 uM (fold change) (WI-38 cells) | Library Screening, at 10 uM (fold change) (WI-38 cells) | H2O2 stress treatment (3 hrs), at 10 uM (fold change) (WI-38 cells)
O=C(NCc1cccnc1)/C(=C\c1cccc(Oc2ccccc2)c1)S(=O)(=O)c1ccccc1 [Gr-7A] | greater than 1.5 fold | 30%-60% | 3.01 | 2.80 | 9.45 | 1.04 | 0.76 | 0.68 | 18.20 | 2.80 | 9.45 | 3.01 | 6.36
O=C(NCc1cccnc1)/C(=C/c1ccc(-c2ccc(Cl)cc2)o1)S(=O)(=O)c1ccccc1 [Gr-7C] | greater than 1.5 fold | 30%-60% | 23.04 | 1.46 | 2.83 | 2.18 | 2.41 | 1.24 | 27.90 | 1.46 | 2.83 | 23.04 | 31.87

Reference: US11413278B2, “Compounds and methods for promoting stress resistance” (priority 2015, dated 2022)
